# Measurements from a collection of fitness landscapes (doi:10.1016/j.celrep.2020.107928).
# Whole data set: some 81,000 sequences, median “one-hybrid fitness for binding parS DNA” near -0.17, cut for the highest 2% near 0.51. This is one part of the list.
# B1: Caulobacter ParB omega fusion; a variant is named by its letters at X, in order, B8GW30 (parent)
# chain: MESVVVGEPGMSEGRRGLGRGLSALLGEVDAAPAQAPGEQLGGSREAPIEILQRNPDQPRRTFREEDLEDLSNSIREKGVLQPILVRPSPDTAGEYQIVAGERAWRAAQRAGLKTVPIMVRELDDLAVLEIGIIENVQRADLNVLEEALSYKVLMEKFERTQENIAQTIGKSXSHVANXMRLLXLPDEVQSYLVSGELTAXHARAIAAAADPVALAKQIIEGGLSVRETEALARKAPNLSAGKSKGGRPPRVKDTDTQALESDLSSVLGLDVSIDHRGSTGTLTITYATLEQLDDLCNRLTRGI
# Variants of: B1
# Test: one-hybrid fitness for binding parS DNA (scaled: cognate 1, non-cognate 0); higher = stronger binding
# Conditions: with parS DNA site
# Summary of the method: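 Selection: bacterial one-hybrid in E. coli USO, HIS3 reporter with the site 19 bp from the promoter, 48 hours at 37°C on M9-minus-histidine plus 0.1 mM IPTG and 5 mM 3-AT. Libraries were Caulobacter ParB with four randomised specificity codons, sequenced on Illumina before and after selection. Fitness is the rescaled log change in variant-to-wild-type read ratio, anchored to the cognate and non-cognate sites.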
row,Variant,one-hybrid fitness for binding parS DNA
1,QACA,≤ 0.2
2,ATRV,≤ 0.2
3,RCQS,0.986
4,RIDC,0.866
5,KSVS,≤ 0.2
6,CHKP,≤ 0.2
7,MANT,≤ 0.2
8,TRTT,≤ 0.2
9,EPYL,≤ 0.2
10,WYSC,≤ 0.2
11,VKRY,≤ 0.2
12,QLDR,≤ 0.2
13,HVLR,≤ 0.2
14,HRVH,≤ 0.2
15,FAFR,≤ 0.2
16,GVDE,≤ 0.2
17,PLVW,≤ 0.2
18,NCEG,≤ 0.2
19,GYHR,≤ 0.2
20,LSHC,≤ 0.2
21,WQYG,≤ 0.2
22,EKAR,≤ 0.2
23,SSYL,≤ 0.2
24,YYIF,≤ 0.2
25,ASHG,≤ 0.2

row,Variant,one-hybrid fitness for binding parS DNA
1,QSMR,≤ 0.2
2,PFQG,≤ 0.2
3,RPKR,≤ 0.2
4,EMEV,≤ 0.2
5,QIQN,≤ 0.2
6,RPMV,≤ 0.2
7,TMSR,≤ 0.2
8,CEPN,≤ 0.2
9,CYWR,≤ 0.2
10,YYIT,≤ 0.2
11,TPRQ,≤ 0.2
12,IIGT,≤ 0.2
13,MYSP,≤ 0.2
14,ADST,≤ 0.2
15,YHGY,≤ 0.2
16,CTLI,≤ 0.2
17,VIRG,≤ 0.2
18,PKFR,≤ 0.2
19,SLKF,≤ 0.2
20,TVPW,≤ 0.2
21,VTLL,≤ 0.2
22,GWST,≤ 0.2
23,VGCL,≤ 0.2
24,MMTD,≤ 0.2
25,KAWV,≤ 0.2

row,Variant,one-hybrid fitness for binding parS DNA
1,APLC,≤ 0.2
2,RQRH,0.249
3,YSLS,≤ 0.2
4,AMKP,≤ 0.2
5,DMGC,≤ 0.2
6,YRNF,≤ 0.2
7,ALDW,≤ 0.2
8,SQVD,≤ 0.2
9,VHRS,≤ 0.2
10,MKMR,≤ 0.2
11,QNPG,≤ 0.2
12,QMQA,≤ 0.2
13,WLNW,≤ 0.2
14,KFKW,≤ 0.2
15,RNLP,≤ 0.2
16,GFTC,≤ 0.2
17,RGWV,≤ 0.2
18,VQYT,≤ 0.2
19,QCLN,≤ 0.2
20,AQTN,≤ 0.2
21,CEAT,≤ 0.2
22,RLGA,0.617
23,IKGS,≤ 0.2
24,PGPM,≤ 0.2
25,HFSC,≤ 0.2

row,Variant,one-hybrid fitness for binding parS DNA
1,TRMH,≤ 0.2
2,ASYN,≤ 0.2
3,TFGS,≤ 0.2
4,QQTM,≤ 0.2
5,NDSI,≤ 0.2
6,THSC,≤ 0.2
7,SFYM,0.36
8,HTRC,≤ 0.2
9,TFMT,≤ 0.2
10,CNNR,≤ 0.2
11,LEDL,≤ 0.2
12,SMYN,≤ 0.2
13,LMAL,≤ 0.2
14,WIVA,≤ 0.2
15,LVDS,≤ 0.2
16,VYDD,≤ 0.2
17,VCNG,≤ 0.2
18,KRYS,≤ 0.2
19,RCFM,0.377
20,VAHV,≤ 0.2
21,SGTF,≤ 0.2
22,RLAG,1.01
